# Experimental data taken from the supplement of paper PMC3334620.
# In all, about 33,000 sequences were measured (“E-score (-0.5 to 0.5)”: median about -0.054, highest 2% from about 0.35 on). Some of the results follow.
# Target: T1, Stb5 (UniProt P38699)
# T1 sequence: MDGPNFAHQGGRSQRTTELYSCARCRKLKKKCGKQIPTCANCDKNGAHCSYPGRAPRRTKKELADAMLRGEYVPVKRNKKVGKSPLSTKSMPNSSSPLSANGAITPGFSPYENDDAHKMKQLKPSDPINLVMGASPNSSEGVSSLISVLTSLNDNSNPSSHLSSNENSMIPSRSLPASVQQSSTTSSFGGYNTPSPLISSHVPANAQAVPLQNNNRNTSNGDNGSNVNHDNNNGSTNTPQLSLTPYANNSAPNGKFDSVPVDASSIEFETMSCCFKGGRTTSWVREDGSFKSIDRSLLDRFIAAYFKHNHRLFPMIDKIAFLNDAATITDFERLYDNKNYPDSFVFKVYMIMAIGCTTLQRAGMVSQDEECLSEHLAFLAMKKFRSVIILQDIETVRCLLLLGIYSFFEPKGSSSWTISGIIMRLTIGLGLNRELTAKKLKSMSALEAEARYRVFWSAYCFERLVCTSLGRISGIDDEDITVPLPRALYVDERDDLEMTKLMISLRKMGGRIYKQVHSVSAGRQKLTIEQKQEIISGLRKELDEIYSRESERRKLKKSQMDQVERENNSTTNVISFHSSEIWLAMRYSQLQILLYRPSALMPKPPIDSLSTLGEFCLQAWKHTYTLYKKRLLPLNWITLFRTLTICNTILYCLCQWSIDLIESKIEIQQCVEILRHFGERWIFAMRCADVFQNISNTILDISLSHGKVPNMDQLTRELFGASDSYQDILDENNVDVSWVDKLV
# Assay: PBM E-score (8-mer binding enrichment) (E-score (-0.5 to 0.5)); higher = stronger / more preferred TF binding; most listed sequences are background and not binding sites
# Conditions: protein concentration: 200 nM; construct: GST-full length
# Procedure: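 Universal 'all 10-mer' protein binding microarrays (Agilent AMADID 015681) probed with GST-tagged S. cerevisiae TFs (full-length or DBD) made by in vitro transcription/translation (PURExpress), about 100-200 nM. Bound TF was detected with fluorescent anti-GST. Each ungapped 8-mer (which stands for itself and its reverse complement) is scored by the PBM enrichment score (E-score), a modified Wilcoxon-Mann-Whitney statistic from -0.5 to +0.5, computed with the Universal PBM Analysis Suite. Scale: above 0.35 generally sequence-specific binding.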
row,Sequence,PBM E-score
1,CTTGTAGC,-0.0769
2,GTCGTAGA,-0.104
3,AGCCCCCT,-0.288
4,CTATGCGC,0.116
5,AGCTCCTA,-0.0757
6,TCTCGCAA,-0.0936
7,GAGGGCTA,-0.166
8,TCTGATCA,-0.171
9,GAGCATCA,-0.135
10,AGTAAGCA,-0.302
11,CAACCTTC,-0.27
12,GCTTTTCC,0.158
13,ACTTTGAT,-0.214
14,GAGTGTTA,-0.153
15,AAAGTACA,-0.247
16,ACATCCAC,0.085
17,AGCCGTCC,0.0676
18,GGTGCTGA,0.0715
19,AAAAATAG,0.105
20,AATGGTAC,-0.0817
21,ATGGGAAC,-0.238
22,CCCTATCG,-0.0129

row,Sequence,PBM E-score
1,ATTCCGAA,0.219
2,ACTTAGTC,0.0386
3,CACGGAAC,0.156
4,AGAAAGGC,-0.0983
5,CGTATAGA,-0.135
6,CGTCCTTC,-0.229
7,TCTAGCAA,-0.0188
8,GCATCTAA,0.21
9,ACTTAAAT,-0.0452
10,ACTGTAAG,0.0547
11,GTGTTAAC,0.142
12,TCGTAGCA,-0.121
13,CGCCCACC,-0.0124
14,TATAGTGA,-0.177
15,GGAGAGAC,-0.0462
16,ATAAAGAT,-0.22
17,ACTTAGAC,-0.0493
18,GCCCTACA,-0.0846
19,AGCTTGTA,-0.239
20,ACGCAGTA,-0.201
21,GGATGTCA,0.0442
22,CCGTGAGA,0.0557

row,Sequence,PBM E-score
1,CTCTGCTA,-0.0312
2,ATGCTCAA,-0.0792
3,CACGTTTC,-0.0643
4,ATCACTGG,-0.108
5,ATCTTGCG,0.0845
6,GGACACAA,0.194
7,CAGTCGCG,-0.0282
8,CCTACCAC,0.0506
9,ATAGCGGG,0.292
10,CATCATAG,-0.0501
11,CTTTACGA,-0.0748
12,CGGTACCA,0.39
13,ATATTAAA,0.245
14,TGTTAAAA,0.0983
15,CCTGAAGC,-0.194
16,AAAAAGGA,-0.0433
17,AAGTCCTG,0.0166
18,TAAGGTGA,-0.00836
19,ACGCAGGC,0.0335
20,CGAAGTAG,0.00691
21,CCTAGGCA,-0.129
22,CAGTAAAC,-0.00851

row,Sequence,PBM E-score
1,ACGTTAGC,-0.0627
2,ATGTACTG,-0.172
3,ACGGCTCC,0.062
4,CTCAGGTA,-0.183
5,GAGGCCTC,-0.328
6,ACAACGAC,0.0269
7,ATTAATAC,0.0798
8,CCTTACTC,0.0597
9,GCGGTGGA,0.177
10,AGGCGGAT,0.0922
11,CACTTCTC,-0.177
12,ATTGCGAC,0.0428
13,CTCCCGAG,-0.213
14,CGGCTGAG,-0.172
15,AGCTTATC,-0.0438
16,CGAGTGCA,-0.00695
17,CTCGTAAG,0.0212
18,GCATGTAC,0.0506
19,GGTGAGCA,-0.097
20,CATAGCAA,-0.146
